Experimental data: article PMC4336329 (PLoS ONE, 2015)
The campaign covered roughly 310,000 compounds. About 2,200 (0.71%) showed an effect of 50% or more. Effects have a minus sign here. This is one part of the list.

target: human ether-à-go-go-related gene (hERG) potassium channel (human, UniProt Q12809); assay: primary screen, population patch clamp on CHO cells stably expressing hERG
Sequence (Q12809 whole entry, looked up): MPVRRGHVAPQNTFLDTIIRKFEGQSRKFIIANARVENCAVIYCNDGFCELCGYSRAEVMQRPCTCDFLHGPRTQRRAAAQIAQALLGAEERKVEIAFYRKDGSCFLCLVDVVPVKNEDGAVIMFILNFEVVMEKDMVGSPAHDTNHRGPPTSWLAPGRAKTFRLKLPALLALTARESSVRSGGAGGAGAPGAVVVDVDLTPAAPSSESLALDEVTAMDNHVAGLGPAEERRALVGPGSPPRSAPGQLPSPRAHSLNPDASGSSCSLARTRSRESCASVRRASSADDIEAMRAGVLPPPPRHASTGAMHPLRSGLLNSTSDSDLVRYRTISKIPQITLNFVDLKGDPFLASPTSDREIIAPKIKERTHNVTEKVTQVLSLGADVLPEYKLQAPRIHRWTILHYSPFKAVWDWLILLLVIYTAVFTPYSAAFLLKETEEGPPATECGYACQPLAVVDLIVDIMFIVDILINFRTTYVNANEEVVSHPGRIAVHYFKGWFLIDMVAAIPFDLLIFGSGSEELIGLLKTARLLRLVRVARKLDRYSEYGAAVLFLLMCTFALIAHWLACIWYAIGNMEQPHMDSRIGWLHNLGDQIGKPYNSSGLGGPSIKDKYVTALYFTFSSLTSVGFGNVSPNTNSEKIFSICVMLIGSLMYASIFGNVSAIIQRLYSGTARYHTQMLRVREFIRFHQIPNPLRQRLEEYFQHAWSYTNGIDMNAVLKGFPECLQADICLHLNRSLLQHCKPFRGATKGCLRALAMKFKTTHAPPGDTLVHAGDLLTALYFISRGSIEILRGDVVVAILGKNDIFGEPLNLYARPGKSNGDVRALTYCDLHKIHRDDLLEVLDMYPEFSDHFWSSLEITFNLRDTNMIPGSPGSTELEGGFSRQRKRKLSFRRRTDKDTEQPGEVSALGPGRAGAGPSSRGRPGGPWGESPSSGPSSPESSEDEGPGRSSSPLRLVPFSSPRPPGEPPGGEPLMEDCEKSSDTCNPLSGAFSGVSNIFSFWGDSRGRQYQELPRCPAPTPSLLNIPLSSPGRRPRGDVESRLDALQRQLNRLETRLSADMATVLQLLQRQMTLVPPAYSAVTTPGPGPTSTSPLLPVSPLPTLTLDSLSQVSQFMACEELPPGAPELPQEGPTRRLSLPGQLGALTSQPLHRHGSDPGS

SMILES	hERG current change (%, negative = inhibition) at 1uM [%]
Cc1ccc(OCCn2c(=O)cnc3ccccc32)cc1	2.58
Cc1ccc(C(=O)c2ccccc2C(=O)OCC(=O)Nc2cccc([N+](=O)[O-])c2)cc1	-8.09
COCCN(C(=S)Nc1ccc(C)cc1)C(C)c1ccco1 (centres unmarked)	2.27
Cc1ccc(N(CC(=O)Nc2ccccc2-c2ccccc2)S(=O)(=O)c2ccccc2)cc1	13.3
CCCNC(=O)NCc1ccc(N2CCCC2=O)cc1	9.05
CCCNC(=O)C(Cc1ccccc1F)NC(=O)c1ccc(C#N)cc1 (centres unmarked)	8.98
COc1ccc(C(=O)NCCNc2nc3ccc(C)cc3cc2C#N)cc1OC	4.63
CCCCn1c(SCC(=O)N2CCC(C)CC2)nc2ccsc2c1=O	-19.1
C=C(Br)Cn1cnc2ccccc21	5.28
COc1ccc2cc(CN(Cc3cccnc3)S(=O)(=O)c3ccccc3)c(=O)[nH]c2c1	-16.2
Cc1ccc(/C=N/NC(=O)CC(=O)NCc2cccnc2)cc1	9.29
CCCCNCc1cc(Br)c(OCC(=O)NCc2ccccc2)c(OC)c1.Cl	-9.88
COC(=O)C1=C[C@@H](C(=O)OC)[C@@H]2C3=C(C(=O)[C@@]2(C)NC(=O)c2ccccc2)[C@H](C)n2c(=O)n(C)c(=O)n2[C@@H]3C1	10.7
COc1ccc(CN=Cc2c(C(=O)O)[nH]c3ccccc23)cc1	6.32
Cc1c(NC(=O)C(C)OC(=O)C23CC4CC(CC(Br)(C4)C2)C3)c(=O)n(-c2ccccc2)n1C (centres unmarked)	-7.53
Cc1sc(NC(=O)C2C3CCC(O3)C2C(=O)O)c(C(=O)OC(C)C)c1-c1ccc(Cl)cc1 (centres unmarked)	14.4
COc1ccc(-c2cc(C(=O)NCc3ccccc3)no2)cc1OC	-4.55
COc1ccc(S(=O)(=O)N2CCC(C(=O)NC3CCCCC3C)CC2)cc1 (centres unmarked)	7.41
COc1nc(Nc2cccc(F)c2)nc(OC)n1	4.66
COc1cc(SC)ccc1C(=O)NCc1ccccc1	14.3
CCOc1ccc(C(=O)CSCCC(=O)O)cc1	3.67
CCN(CC)S(=O)(=O)c1ccc(C(=O)Nc2ncn(Cc3ccccc3)n2)cc1	8.32
COc1cccc(NC(=O)C(=O)N2CCOCC2)c1	13

SMILES	hERG current change (%, negative = inhibition) at 1uM [%]
O=C(CSc1nnc(-c2cccnc2)n1-c1ccccc1)NCc1ccc2c(c1)OCO2	-47.9
CCOC(=O)CSc1nc(NC#N)nc(N(CC)CC)n1	14.4
CC(C)OC(=O)c1c(NC(=O)c2cnn3c2NC(c2ccccc2)CC3C(F)F)sc2c1CCCC2 (centres unmarked)	11.8
CC(C)(O)C(=O)Nc1ccc([N+](=O)[O-])c(C(F)(F)F)c1	4.18
O=C1NC(=S)N(c2ccccc2F)C(=O)/C1=C\c1cccs1	11.3
O=C(OCc1cc2ccccc2[nH]c1=O)c1ccncc1	9.42
O=C(c1ccc(S(=O)(=O)NCC2CCCO2)cc1)N1CCN(c2ccccc2F)CC1 (centres unmarked)	2.29
COc1ccc(CNC(=O)CCN2C(=S)NC(C)(C)CC2C)cc1 (centres unmarked)	9.79
CCCCCn1c(=N)n(CC(O)COc2ccccc2OC)c2ccccc21.Cl (centres unmarked)	-86.3
Nc1nnnn1/N=C/c1ccccc1OCc1ccc(Cl)cc1	-0.867
CCOC(=O)C1CCN(CCCSc2ccccc2)CC1.Cl	-22.2
COc1cccc(NC(=O)CN(C)C(=O)c2cc(S(=O)(=O)NCc3ccccc3)ccc2C)c1	-15.2
OCCSc1nc(-c2ccccc2)nc2ccc(F)cc12	10.8
Cc1ccc(OC(=O)c2ccc(C)c(C)c2)cn1	8.78
Cc1nc2ccc(NC(=O)c3ccc(Cl)c(NC(=O)c4cccs4)c3)cc2s1	13.2
Cc1cccc(C)c1NC(=O)c1cccnc1	14.9
COc1nc(-c2ccccc2)ccc1-c1noc(COc2ccccc2)n1	17.7
CC(C)NC(=O)C1CCN(C2CCN(C(=O)c3cc4c(s3)CCCCC4)CC2)CC1	6.33
O=C(COc1ccc(Cl)cc1)NCc1nnc(SCC(=O)N2CCCCC2)o1	-3.7
Cc1nc2c(-c3ccccc3)c(C)nn2c(C)c1CC(=O)O	7.18
Cc1cccc2cc(CN(Cc3ccco3)C(=O)c3ccco3)c(=O)[nH]c12	3.76
COc1cccc(OCCOc2c(OC)cccc2OC)c1	17
Cc1csc(NC(C)c2nc3cc(Cl)c(N4CCCCC4)cc3n2CCOCCO)n1 (centres unmarked)	2.53

SMILES	hERG current change (%, negative = inhibition) at 1uM [%]
CC(C)(C#CC(O)(c1ccccc1)c1ccccc1)N1CCCC1.Cl	-13.9
CCN(CC)S(=O)(=O)c1ccc(Cl)c(C(=O)NC(C)C(c2cccs2)N2CCCC2)c1 (centres unmarked)	2.12
COc1ccc(C(=O)C2CCCN(C(=O)c3cc4nc(C)cc(C)n4n3)C2)cc1F (centres unmarked)	3.7
COc1ccc(S(=O)(=O)NC2(C(F)(F)F)N=C(c3ccccc3)NC2=O)cc1 (centres unmarked)	5.44
CC(C)COC(=O)C(N)C(C(=O)OCC(C)C)c1ccccc1.Cl (centres unmarked)	11.2
CC(C)NC(=O)c1cc2c(-c3ccc(Cl)cc3)nn(C)c2s1	6.15
COc1cccc(-c2ncc3ccccc3c2COC(=O)CCC(=O)O)c1	11.6
O=C(COC(=O)c1cccnc1Cl)Nc1cc(S(=O)(=O)N2CCCCC2)ccc1Cl	1.71
CC1CC(=O)N(c2ccc(C(C)C)cc2)C(=O)C1	12.4
CN(C(=O)CSc1nnc(C2CC2)n1-c1ccccc1)C1CCS(=O)(=O)C1 (centres unmarked)	4.71
COc1cccc(CC(=O)Nc2sc3c(c2C(N)=O)CCCC3)c1	5.42
CCOc1cc(S(=O)(=O)N2CCC(c3nc4ccccc4s3)CC2)c(OCC)cc1S(=O)(=O)N1CCCCC1	14
C=CCn1c(-c2ccco2)n[nH]c1=S	2.81
O=C(NCc1ccccc1Cl)c1cc2ccccc2oc1=O	10.2
Cc1cccc(C)c1NC(=O)Nc1ccc2c(c1)OCO2	1.95
Cc1ccc(S(=O)(=O)NCCCNc2ccc([N+](=O)[O-])cc2)cc1	-8.2
CC(Sc1ccccc1)C(=O)NNC(=O)c1csc(N2CCOCC2)n1 (centres unmarked)	9.42
COc1ccc(COC(=O)NC(C(=O)O)c2ccccc2)cc1 (centres unmarked)	5.57
CC(C)[C@H](NC(=O)c1ccco1)C(=O)OCC(=O)Nc1ccc(Cl)c(S(=O)(=O)N(C)C)c1	7.7
COc1ccc2nc(NC(=O)c3ccc(F)cc3)sc2c1	18.4
CC(OC(=O)CCN=C1NS(=O)(=O)c2ccccc21)C(=O)NC1CCCCC1C (centres unmarked)	-6.14
O=C(c1ccccc1)n1ccc(-c2cnc(-c3ccccc3)s2)n1	12.2
COc1cccc(NC(=O)C(C)SCc2ccccc2)c1 (centres unmarked)	4.11

SMILES	hERG current change (%, negative = inhibition) at 1uM [%]
COC(=O)C1=C(c2ccc(F)cc2F)C[C@@H]2CC[C@H]1N2C(=O)NCc1ccc(F)cc1	7.56
CCCCCCn1c(CN2CCN(C(=O)OCC)CC2)nc2c1c(=O)n(C)c(=O)n2C	-13.7
NC(=O)c1sc2nc3c(c(-c4ccc(Cl)cc4)c2c1N)CCCC3	9.2
COCc1ccc(C(=O)N2CCCC(CCC(=O)NCc3ccccc3F)C2)o1 (centres unmarked)	4.17
Cc1cc(C)cc(OCC(=O)OC(C)C(=O)Nc2ccc(Cl)cn2)c1 (centres unmarked)	6.93
CCCS(=O)(=O)c1nc(S(=O)(=O)c2ccc(C)cc2)c(N2CCc3ccccc3C2)s1	8.61
CC(C)CN(C(=O)c1cccc(Cl)c1)c1c(N)n(Cc2ccccc2)c(=O)[nH]c1=O	10.4
CCOC(=O)N1CCN(Cc2c(F)cccc2Cl)CC1	4.02
CC(C)C[C@H](NC(=O)c1nc[nH]c1C(=O)NCCCCCNC(=O)OC(C)(C)C)C(=O)OC(C)(C)C	12.9
Cc1cc(C)nc(SCCCNCc2ccccc2)n1.Cl	11.4
CC(C)(C)NCC(O)COc1cccc2c1CC(O)C(O)C2 (centres unmarked)	8.39
O=C(NCCCN1CCOCC1)C(Sc1ccccc1)c1ccccc1 (centres unmarked)	0.0189
COc1ccc(/C=N/n2c(C)nnc2C)c(OC)c1OC	14.1
O=C(CCC(=O)c1cccs1)NC(c1ccccc1)c1ccccc1	8.92
CSc1nsc(N/N=C/c2ccc3c(c2)OCO3)c1C#N	9.07
CCOC(=O)c1cn(-c2ccccc2)nc1-c1cccnc1	11.6
CSc1nc2c(cc1C#N)CCC2	11.4
O=C(/C=C/c1ccccc1)NCCN1CCOCC1	21.7
Clc1cccc(OCCN2CCN(CCOc3cccc(Cl)c3)CC2)c1	-10.3
COc1ccc(-n2cnnc2SCc2csc(-c3ccccc3)n2)cc1	0.368
